In the antibiotic and cytotoxicity screens of Wong et al. (2023):
The list shows a part of the results.

What was measured:
HSkMC = human skeletal muscle cells; assay: cytotoxicity call (relative viability < 0.9); conditions: 10 µM
HepG2 = assay: cytotoxicity call (relative viability < 0.9); conditions: 10 µM
S. aureus RN4220 = assay: growth inhibition call (relative growth <= 0.2); conditions: 50 µM

| Structure (SMILES) | cytotoxicity call (HSkMC) | cytotoxicity call (HepG2) | growth inhibition call (S. aureus RN4220) |
| --- | --- | --- | --- |
| C[C@H]1CN([C@@H](C)CO)S(=O)(=O)c2ccc(C#Cc3ccc(F)cc3)cc2O[C@@H]1CN(C)S(C)(=O)=O | inactive | active | inactive |
| C[C@@H]1CCCCO[C@@H](CN(C)Cc2ccc(Cl)c(Cl)c2)[C@@H](C)CN([C@H](C)CO)C(=O)c2cc(NC(=O)c3ccccc3)ccc2O1 | inactive | inactive | inactive |
| Cc1noc(C)c1NC(=O)N(C)C[C@@H]1Oc2c(NS(=O)(=O)c3ccccc3)cccc2C(=O)N([C@@H](C)CO)C[C@@H]1C | inactive | inactive | inactive |
| COc1ccc(S(=O)(=O)N(C)C[C@H]2OCc3cn(nn3)CCCC(=O)N([C@@H](C)CO)C[C@@H]2C)cc1 | inactive | inactive | inactive |
| C=CC(=O)N[C@H]1CCCN(CC)C1 | inactive | inactive | inactive |
| CC(=O)N1[C@@H]2Cn3c(cccc3=O)[C@H]1[C@@H](C(=O)N1CCc3ccccc3C1)[C@@H]2CO | inactive | inactive | inactive |
| C[C@@H]1CN([C@@H](C)CO)C(=O)CCCn2nncc2CO[C@@H]1CN(C)S(=O)(=O)c1ccc(-n2cccn2)cc1 | inactive | inactive | inactive |
| Cc1ccc(S(=O)(=O)N[C@@H](Cc2ccccc2)C(=O)NCCn2cc(C(=O)NO)nn2)cc1 | inactive | inactive | inactive |
| CCOC(=O)c1cncc(C(=O)O)c1 | inactive | inactive | inactive |
| Cc1ccc(S(=O)(=O)Nc2ccc3c(c2)C(=O)N([C@@H](C)CO)C[C@H](C)[C@@H](CN(C)S(=O)(=O)c2cn(C)cn2)O3)cc1 | inactive | inactive | inactive |
| Cc1ccc(S(=O)(=O)Nc2ccc3c(c2)C(=O)N([C@@H](C)CO)C[C@H](C)[C@H](CN(C)Cc2ccc(C(=O)O)cc2)OCCCC[C@@H](C)O3)cc1 | inactive | inactive | inactive |
| COc1ccc(CN(C)C[C@H]2Oc3ccc(NC(=O)Cn4cnnn4)cc3CC(=O)N([C@H](C)CO)C[C@H]2C)cc1 | inactive | inactive | inactive |
| C[C@@H]1CCCCO[C@H](CN(C)Cc2ccccc2)[C@@H](C)CN([C@@H](C)CO)C(=O)c2cc(NC(=O)NC3CCCCC3)ccc2O1 | inactive | active | inactive |
| CO[C@H]1CN(C)C(=O)c2cc(NC(=O)Nc3ccccc3F)ccc2OC[C@H](C)N(Cc2ccccc2C(=O)O)C[C@@H]1C | inactive | inactive | inactive |
| COc1ccc(NC(=O)N(C)C[C@@H]2Oc3ccc(NS(C)(=O)=O)cc3CC(=O)N([C@@H](C)CO)C[C@@H]2C)cc1 | inactive | inactive | inactive |
| Cc1ccc(Oc2ccccc2)c(NC(=O)c2ccccc2)c1 | inactive | active | inactive |
| C[C@H](CO)N1C[C@H](C)[C@H](CN(C)C(=O)Nc2ccc(F)cc2)OCCCC[C@H](C)Oc2ccc(NC(=O)Nc3ccc4c(c3)OCO4)cc2C1=O | inactive | inactive | inactive |
| C[C@H]1CCCCO[C@H](CN(C)Cc2ccc(C(=O)O)cc2)[C@@H](C)CN([C@@H](C)CO)C(=O)c2cc(NC(=O)Nc3ccccc3)ccc2O1 | inactive | inactive | inactive |
| CO[C@@H]1CN(C)C(=O)c2ccc(NS(=O)(=O)c3cn(C)cn3)cc2OC[C@@H](C)N(CC2CC2)C[C@H]1C | inactive | inactive | inactive |
| C[C@@H]1CCCCO[C@@H](CN(C)S(=O)(=O)c2cn(C)cn2)[C@@H](C)CN([C@H](C)CO)C(=O)c2cc(NS(=O)(=O)c3ccccc3)ccc2O1 | inactive | inactive | inactive |
| Cc1noc(C)c1NC(=O)Nc1ccc2c(c1)CC(=O)N([C@H](C)CO)C[C@@H](C)[C@@H](CN(C)S(C)(=O)=O)O2 | inactive | inactive | inactive |
| CC[C@@H](C)[C@H]1NC(=O)NC1=O | inactive | inactive | inactive |
| CCCn1cnnc1CNC | inactive | inactive | inactive |
| C=CC[C@@H](CC(=O)N(CCO)Cc1ccccc1)C(=O)N[C@H](COC(=O)[C@H](CC=C)NC(=O)OCC1c2ccccc2-c2ccccc21)C(C)(C)C | inactive | inactive | inactive |
| CC(C)(C)S(=O)N1Cc2cc(C(=O)NCc3ccc4c(c3)OCO4)nc(-c3cccc(C#CCC4CCCC4)c3)c2[C@H]1CCO (stereo partly drawn) | inactive | inactive | inactive |
| C[C@H](CO)N1C[C@H](C)[C@H](CN(C)Cc2ccccc2)OCCCC[C@H](C)Oc2ccc(NC(=O)c3ccncc3)cc2C1=O | inactive | inactive | inactive |
